Test results reported in PubChem BioAssay AID588456 (National Center for Advancing Translational Sciences (NCATS), 2011).
About 55 (0.01%) of roughly 390,000 compounds were called active. Inconclusive results, whose numbers are uncertain, are shown with a selection of clear calls. Calls follow the shape of the dose curve; as a rule, active = well fitted inhibition curve with a large enough effect; inconclusive = small, poorly fitted or top-dose-only effect; inactive = no such curve, though single readings can be large or run the other way. A potency beside an inconclusive call is a rough fit, not a confirmed value. Where a structure was tested more than once in an assay, its records may differ in their call.

target: Thioredoxin reductase 1, cytoplasmic (Rattus norvegicus) (UniProt O89049); experiment: qHTS Assay for Substrates of Mammalian Selenoprotein Thioredoxin Reductase 1 (TrxR1): qHTS; details: purified TrxR1 substrate turnover, NADPH consumption readout; series mostly up to 114 µM; activity change, negative = substrate turnover: at the top concentration; also: nearly all actives have a fitted effect of over 50% in size
UniProt O89049, sequence (O89049 whole entry, looked up): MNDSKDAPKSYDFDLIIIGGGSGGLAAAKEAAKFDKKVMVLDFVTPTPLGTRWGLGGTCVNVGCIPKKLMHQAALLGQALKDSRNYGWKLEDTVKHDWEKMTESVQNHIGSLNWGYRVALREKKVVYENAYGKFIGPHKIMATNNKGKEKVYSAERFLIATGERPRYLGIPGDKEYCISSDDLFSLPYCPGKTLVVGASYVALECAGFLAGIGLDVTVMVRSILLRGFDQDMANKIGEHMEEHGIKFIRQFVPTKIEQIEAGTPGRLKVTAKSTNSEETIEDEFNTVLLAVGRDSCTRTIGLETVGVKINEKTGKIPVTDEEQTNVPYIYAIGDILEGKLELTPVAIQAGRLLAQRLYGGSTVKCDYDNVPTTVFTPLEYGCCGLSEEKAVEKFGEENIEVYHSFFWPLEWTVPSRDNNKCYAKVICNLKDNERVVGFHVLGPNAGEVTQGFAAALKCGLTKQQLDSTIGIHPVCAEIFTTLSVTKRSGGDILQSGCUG
How it was run: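 Rat TrxR1, dispensed at 90 nM, was prereduced with 400 uM NADPH (final) for 5 min at ~22 deg C, then incubated with compound 15 min before 400 uM selenite. A first-read NADPH fluorescence drop versus no-compound background flagged substrates.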
% is scaled to controls: 0 for no effect and ±100 for the full control effect; potency is read from the fitted curve at half-maximal effect; tags tell the direction and shape of the fitted curve.

Row | SMILES | Potency | activity change, negative = substrate turnover
1 | CN1CCCN(S(=O)(=O)c2ccccc2)CC1 | inconclusive: 31.6 µM [inhibitor, single point] | 
2 | COc1cc(/C=N/n2c(COc3ccccc3)n[nH]c2=S)cc(OC)c1OC(C)=O |  | inactive: -1.58%
3 | COc1ccc(CC(=O)NCC2CCCN(Cc3cccc(C(F)(F)F)c3)C2)cc1 (stereo not given) |  | inactive: -2.53% [at 57.1 µM]
4 | CN(C(=O)CN1C(=O)/C(=C/c2ccc(F)cc2)SC1=S)C1CCS(=O)(=O)C1 (stereo not given) | inconclusive: 89.1 µM [inhibitor, partial curve, poor fit] | 
5 | CCCn1c(=N)n(CC(O)c2ccc(C)cc2)c2ccccc21 (stereo not given) | inconclusive: 89.1 µM [inhibitor, single point] | 
6 | O=S(=O)(Nc1cc2nc3ccccc3nc2n1Cc1ccccc1)c1ccc(Cl)cc1 | inconclusive: 79.4 µM [inhibitor, partial curve] | 
7 | Cc1cccc(-c2nc3c(c(SCc4ccccc4Cl)n2)Cc2c(CO)cnc(C)c2O3)c1 |  | inactive: -4.68%
8 | Nc1ccc(N2CCCCC2)c2nonc12 | active: 50.1 µM | 
9 | CCCCCCCCCC[n+]1ccc(/C=C/c2c(C)[nH]c3ccccc23)cc1 |  | inactive: 1.59%
10 | COC(=O)N1[C@H](C)C=C[C@]1(Cc1ccccc1)C(=O)NCCCNc1ncc(C(F)(F)F)cc1Cl | inconclusive: 89.1 µM [inhibitor, single point] | 
11 | O=C(COc1cc(Cl)c(Cl)cc1Cl)N1CCN(c2ccccn2)CC1 |  | inactive: 5.71% [at 57.1 µM]
12 | CC1=NN(C(N)=S)C(=O)C1N=Nc1c(Cl)cc([N+](=O)[O-])cc1Cl (stereo not given) | inconclusive: 50.1 µM [inhibitor, partial curve, poor fit] | 
13 | COc1ncnc2c1NC1=C(S2)C(=NCCC(=O)O)CC(C)(C)C1 | inconclusive: 15.8 µM [inhibitor, partial curve, poor fit] | 
14 | Fc1ccc(C(c2nnc(-c3ccccc3)o2)N2CCN(c3cccc(Cl)c3)CC2)cc1 (stereo not given) |  | inactive: 6.8% [at 57.1 µM]
15 | Nc1nc(Nc2ccccc2)nc(NCCO)c1[N+](=O)[O-] | inconclusive: 89.1 µM [inhibitor, single point] | 
16 | CCCCCc1cc(=O)oc2c(C(CCN(CC)CC)c3ccc(OC)cc3)c(OC)cc(OC)c12 (stereo not given) |  | inactive: 13%
17 | CN(C)c1ccc(/C=C(\C#N)C(=O)OCC(=O)N(C)C2CCS(=O)(=O)C2)cc1 (stereo not given) | inconclusive: 79.4 µM [inhibitor, partial curve, poor fit] | 
18 | COc1cc2c(C#N)c(N3CCCC3)nc(N)c2c(N)n1 | active: 15.8 µM | 
19 | CCc1ccc(/C=C\C(=O)N2CCCC2)cc1 |  | inactive: 0.523%
20 | COc1ccc(NC(=O)/C=C/c2ccc(Cl)cc2)cc1 | inconclusive: 1.89 µM [inhibitor, partial curve, poor fit] | 
21 | CCc1c(C)nc2cc(-c3ccc(OC)c(OC)c3)nn2c1N1CCCC1 |  | inactive: 4.69%
22 | CCCCn1c(SCC(=O)N2c3ccccc3Sc3ccccc32)nc2c1c(=O)n(C)c(=O)n2C | inconclusive: 14.1 µM [inhibitor, partial curve, poor fit] | 
23 | Cc1ccnc(NC(=O)CCC(=O)N(CC(=O)NCc2ccc(F)cc2)CC2CCCO2)c1 (stereo not given) | inconclusive: 89.1 µM [inhibitor, partial curve, poor fit] | 

Row | SMILES | Potency | activity change, negative = substrate turnover
24 | O=C(/C=C/c1ccco1)Nc1cccnc1Cl |  | inactive: 0.564%
25 | CN(C)C(CNC(=O)c1cccc(S(=O)(=O)NCc2ccccc2)c1)c1ccccc1 (stereo not given) |  | inactive: 3.83% [at 57.1 µM]
26 | COc1cccc(N2CCN(c3ncnc4c3cnn4-c3ccc(C)cc3C)CC2)c1 |  | inactive: 18.4%
27 | CCCCOC(=O)NS(=O)(=O)c1sc(CC(C)C)cc1-c1ccc(Cn2c(CC)nc3c(C)cc(C)nc32)cc1 | inconclusive: 17.8 µM [inhibitor, single point] | 
28 | CCOc1ccccc1C1CC(=O)NC(SCC)=C1C#N (stereo not given) |  | inactive: -3.47%
29 | COc1cc2c(cc1OC)/C(=C/c1ccc(N(C)C)cc1)C=C2 |  | inactive: -10.5%
30 | CC1CCCN(C(=O)CN2CCC(c3nc4ccc(Cl)cc4[nH]3)CC2)C1 (stereo not given) | inconclusive: 89.1 µM [inhibitor, partial curve, poor fit] | 
31 | CCNC(=O)N1CCN(CCCC(c2ccc(F)cc2)c2ccc(F)cc2)CC1 | inconclusive: 37.7 µM [inhibitor, partial curve, poor fit] | 
32 | CCC(=O)Nc1cccc(NC(=S)NC(=O)Cc2ccccc2)c1 |  | inactive: -6.48%
33 | COc1ccc(-c2cc(-c3nnc(COC(=O)c4ccc(O)cc4)o3)c3ccccc3n2)cc1OC |  | inactive: 6.19% [at 57.1 µM]
34 | O=C(NCc1ccccn1)C(=O)N/N=C/c1ccc2c(c1)OCO2 | inconclusive: 56.2 µM [inhibitor, partial curve, poor fit] | 
35 | CCC(=O)Nc1ccc(C)cc1-c1nc2ccccc2n(CC(=O)c2ccc(C)cc2)c1=O |  | inactive: -6.36%
36 | COc1cccc(F)c1C(C[N+](=O)[O-])c1c(N)n(C)c(=O)n(C)c1=O (stereo not given) |  | inactive: -0.956%
37 | CC(=O)c1sc(NC(=O)C2(F)C(F)(F)C(F)(F)C(F)(F)C(F)(F)C2(F)F)nc1C | inconclusive: 70.8 µM [inhibitor, partial curve, poor fit] | 
38 | Cc1ccc(Oc2c(C(F)(F)F)oc3c(CN4CCC(C)CC4)c(O)ccc3c2=O)cc1 | inconclusive: 89.1 µM [inhibitor, partial curve, poor fit] | 
39 | O=C(O)c1ccc(S(=O)(=O)/N=C2\C=C(Nc3ccccc3F)C(=O)c3ccccc32)cc1 | inconclusive: 79.4 µM [inhibitor, single point] | 
40 | Cc1ccc2[nH]c3nc(SCC#N)nnc3c2c1 | inconclusive: 28.2 µM [inhibitor, single point] | 
41 | COc1cc(Cl)c(S(=O)(=O)N2CCCC2)cc1Cl |  | inactive: 0.818%
42 | Cc1c(C(=O)OCc2ccccc2)[nH]c2c1C(=O)CC(c1ccco1)C2 (stereo not given) |  | inactive: 6.52% [at 57.1 µM]
43 | CC1(C)C(C=C(Cl)Cl)C1C(=O)Nc1ccc([N+](=O)[O-])cc1 (stereo not given) | inconclusive: 25.1 µM [inhibitor, partial curve, poor fit] | 
44 | Cc1ccccc1N=Cc1cccc(O)c1O | inconclusive: 79.4 µM [inhibitor, partial curve, poor fit] | 
45 | COc1ccc([N+](=O)[O-])cc1N(CC(O)CN1CCCC1)S(=O)(=O)c1ccc(C)cc1 (stereo not given) | inconclusive: 89.1 µM [inhibitor, single point] | 
